Results as given in PubChem BioAssay AID1476 (National Center for Advancing Translational Sciences (NCATS), 2009).
Out of some 200,000 compounds screened, about 4,500 (2.2%) were called active. Inconclusive results, whose numbers are uncertain, are shown with a selection of clear calls. Calls come from the whole dose curve; as a rule, active = well fitted inhibition curve with a large enough effect; inconclusive = small, poorly fitted or top-dose-only effect, or effect the other way; inactive = flat fitted curve, though single readings scatter. Potencies beside an inconclusive call are fits to weak or partial responses and may not hold up.

The compounds below were run against Cruzipain (Trypanosoma cruzi) (UniProt P25779) (assay: qHTS Assay for Promiscuous and Specific Inhibitors of Cruzain (without detergent)). Settings: purified cruzain, Z-FR-AMC fluorescence, no detergent.
How it was run: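 Detergent-free condition (0.00005% Triton X-100) in acetate buffer pH 5.5 with DTT. 1.5 nM enzyme and compound were pre-mixed 15 min, then 2 uM Z-FR-AMC substrate added; reaction progress from fluorescence change between first and third reads (60 s).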
Note: nearly all actives have a fitted effect of over 40% in size.
Potency is the fitted concentration of half-maximal effect; tags give direction and shape of the fitted curve.
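Throughout, for max response, negative = inhibition: plate controls were enzyme without inhibitor for no effect and buffer without enzyme for full effect.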

Sequence of UniProt P25779 (P25779 whole entry, looked up): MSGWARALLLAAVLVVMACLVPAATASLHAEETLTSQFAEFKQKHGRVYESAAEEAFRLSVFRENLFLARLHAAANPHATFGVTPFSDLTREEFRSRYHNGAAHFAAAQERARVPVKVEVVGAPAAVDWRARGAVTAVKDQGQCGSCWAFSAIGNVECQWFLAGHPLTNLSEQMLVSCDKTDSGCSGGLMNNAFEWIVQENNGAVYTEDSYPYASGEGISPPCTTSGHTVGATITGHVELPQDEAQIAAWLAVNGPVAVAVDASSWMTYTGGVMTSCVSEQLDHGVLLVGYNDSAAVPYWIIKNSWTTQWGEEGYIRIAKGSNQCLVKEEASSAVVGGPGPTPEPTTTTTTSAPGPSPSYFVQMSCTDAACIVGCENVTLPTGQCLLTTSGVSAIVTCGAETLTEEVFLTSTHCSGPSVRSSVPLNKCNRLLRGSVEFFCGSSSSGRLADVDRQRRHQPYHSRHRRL

Q: With `CCOC(=O)N1CCC(NC(=O)c2cnn(-c3cccc(Cl)c3C)c2C2CCN(C(=O)OC(C)(C)C)CC2)CC1` as the compound, how does the Potency read?
A: inconclusive: 39.8 µM [activator, single point]

Q: Which max response, negative = inhibition does the source give for `COc1cccc(CNC(=O)C2CCN(S(=O)(=O)c3cn(C)cn3)CC2)c1` here?
A: inactive: 4.98%

Q: For `CCOc1ccc(CCNC(=O)C2CCN(S(=O)(=O)N3CCCCC3)CC2)cc1OCC`, which Potency is on record?
A: inconclusive: 31.6 µM [activator, single point]

Q: `COc1cccc(Cn2cccc(NC(=O)Nc3ccc(C#N)cc3)c2=O)c1` was tested. Which max response, negative = inhibition did it give?
A: inactive: 15.4%

Q: With `CCOC(=O)N1CCN(C(=O)CN(C2CCCCC2)S(=O)(=O)c2ccc(C)cc2)CC1` as the compound, how does the Potency read?
A: inconclusive: 6.31 µM [activator, single point]

Q: For `O=C(COC(=O)/C=C/c1nc2ccccc2s1)Nc1cccc(Cl)c1Cl`, which Potency is on record?
A: active: 10 µM

Q: Which Potency does the source give for `COc1ccc([C@H]2[C@H](C(=O)C(C)(C)C)N3N=Cc4ccccc4C3[C@]23N=C(c2ccccc2)OC3=O)cc1` (stereo partly drawn) here?
A: inconclusive: 15.8 µM [inhibitor, partial curve]

Q: With `CC(C)CN1CC[C@@]2(CCCN(C(=O)c3csnn3)C2)C1` as the compound, how does the Potency read?
A: inconclusive: 25.1 µM [inhibitor, single point]

Q: With `COc1ccc(-c2cc(C(=O)NCc3ccc(F)cc3)c3c(-c4ccc(F)cc4)[nH]nc3n2)cc1OC` as the compound, how does the Potency read?
A: inconclusive: 7.94 µM [activator, full curve]

Q: For `CC(=O)c1ccc(NC(=O)CSc2cn(CC(=O)N3CCCCCC3)c3ccccc23)cc1`, which Potency is on record?
A: inconclusive: 20 µM [inhibitor, single point]

Q: Which max response, negative = inhibition does the source give for `Cc1cccc(-c2nc3c4ccccc4nc(NCc4ccc(Cl)cc4)n3n2)c1` here?
A: inactive: -14.9%

Q: `Cc1cccc(C)c1-n1ncc(C(=O)N2CCN(c3ccccn3)CC2)c1C1CCN(C(=O)OC(C)(C)C)CC1` was tested. Which Potency did it give?
A: inconclusive: 39.8 µM [activator, single point]

Q: Which Potency does the source give for `COC(=O)c1sc(NC(=O)CC(C)C)c(C(=O)OC)c1C` here?
A: inconclusive: 31.6 µM [activator, single point]

Q: How did the Potency turn out when `COc1ccccc1NC(=O)N1CCc2[nH]c3ccc(Cl)cc3c2C1` was run?
A: inconclusive: 25.1 µM [activator, single point]

Q: `O=C(Cc1cccc2ccccc12)N/N=C/C=C/c1cccc([N+](=O)[O-])c1` was tested. Which Potency did it give?
A: inconclusive: 39.8 µM [inhibitor, single point]

Q: For `Cc1ccc(-n2c(O)c(C=Nc3ccc4c(c3)OCO4)c3ccccc3c2=O)cc1C`, which Potency is on record?
A: active: 10 µM

Q: For `CCc1nc(Nc2ccc3nccnc3c2)c2oc3ccccc3c2n1`, which Potency is on record?
A: inconclusive: 20 µM [activator, single point]

Q: Which Potency does the source give for `CNC(=O)c1ccc(Nc2nnc(-c3ccc(C)c(S(=O)(=O)N(C)C)c3)c3ccccc23)cc1` here?
A: inconclusive: 39.8 µM [activator, single point]

Q: For `O=C(NCCc1ccccc1)C(=O)N/N=C/c1ccc2c(c1)OCO2`, which Potency is on record?
A: active: 20 µM

Q: How did the Potency turn out when `Cc1nc2cncnc2n(Cc2ccccc2Cl)c1=O` was run?
A: inconclusive: 12.6 µM [inhibitor, partial curve]

Q: Which Potency does the source give for `CCOC(=O)CC1c2cc(OCC)c(OCC)cc2CCN1C(=O)Nc1cccc(Cl)c1` (stereo not drawn) here?
A: inconclusive: 39.8 µM [activator, single point]

Q: `Cc1cccn2c(=O)c3cc(C(=O)NCc4ccccc4)c(=N)n(CCOCCO)c3nc12` was tested. Which Potency did it give?
A: inconclusive: 3.16 µM [activator, full curve]

Q: Which Potency does the source give for `CCC(C)(C)NC(=O)C(c1cccn1C)N(C(=O)Cn1nnc2ccccc21)c1ccc(F)cc1` (stereo not drawn) here?
A: inconclusive: 31.6 µM [inhibitor, single point]

Q: `O=C(CCSc1nc(-c2ccco2)cc(C(F)(F)F)n1)N1CCN(c2ccccn2)CC1` was tested. Which Potency did it give?
A: inconclusive: 39.8 µM [activator, single point]

Q: With `CC(=O)c1cc(C(=O)Nc2cc(C)cc(C)c2)c2ccccn12` as the compound, how does the Potency read?
A: inconclusive: 39.8 µM [activator, single point]

Q: Which max response, negative = inhibition does the source give for `O=c1[nH]c(=O)n([C@@H]2C[C@H](O)[C@H](CO)O2)cc1C(F)(F)F` here?
A: inactive: -15.1%

Q: How did the Potency turn out when `COc1ccc2c(c1)CCc1c(C(=O)Nc3c(C)nn(Cc4ccc(Cl)c(Cl)c4)c3C)noc1-2` was run?
A: inconclusive: 6.31 µM [inhibitor, partial curve]

Q: How did the Potency turn out when `Cc1nc2nc(SCC(=O)NCCc3ccc(Cl)cc3)nn2c(C)c1Cc1ccccc1` was run?
A: inconclusive: 25.1 µM [activator, single point]

Q: How did the Potency turn out when `Cc1ccc(C2=N/C(=C/c3cccs3)C(=O)N2Nc2ccccc2)cc1` was run?
A: active: 25.1 µM

Q: `Cc1ccc(C(=O)COC(=O)c2ccccc2NC(=O)c2ccccc2)cc1[N+](=O)[O-]` was tested. Which Potency did it give?
A: inconclusive: 39.8 µM [inhibitor, single point]

Q: Which max response, negative = inhibition does the source give for `O=C(c1ccc2c(c1)N(Cc1ccc(Cl)cc1)C(=O)c1ccccc1S2(=O)=O)N1CCCCC1` here?
A: inactive: 0.0442%

Q: `COC(=O)c1ccccc1S(=O)(=O)N(CCCO)Cc1cc2c(C)ccc(C)c2[nH]c1=O` was tested. Which Potency did it give?
A: inconclusive: 20 µM [activator, single point]

Q: How did the Potency turn out when `COc1ccc(NC(=O)CSc2nc3c(oc4ccccc43)c(=O)n2-c2ccc(C)c(C)c2)cc1` was run?
A: inconclusive: 31.6 µM [inhibitor, single point]

Q: With `Cc1cccc(N=Cc2[nH]c3ccc(Br)c(Cl)c3c2O)c1` as the compound, how does the Potency read?
A: inconclusive: 31.6 µM [inhibitor, single point]

Q: How did the max response, negative = inhibition turn out when `O=C(Cn1c(=O)n(-c2ccc(F)c(Cl)c2)c(=O)c2sc3ccccc3c21)NC1CCCC1` was run?
A: inactive: -0.747%

Q: `O=C(c1ccc(-n2c(SCc3cccc(F)c3)nc3ccccc3c2=O)cc1)N1CCOCC1` was tested. Which Potency did it give?
A: inconclusive: 31.6 µM [activator, single point]

Q: How did the Potency turn out when `O=C(Nc1cccc(S(=O)(=O)N2CCCCC2)c1)Nc1ccc(Cl)cc1Cl` was run?
A: inconclusive: 25.1 µM [inhibitor, single point]

Q: With `CCc1ccc(Cc2cnc(NC(=O)c3ccc4c(c3)CC(c3ccccc3)OC4=O)s2)cc1` (stereo not drawn) as the compound, how does the Potency read?
A: inconclusive: 39.8 µM [inhibitor, single point]

Q: With `CCOC(=O)C1CCN(C(=O)C2CCN(C3=NS(=O)(=O)C(c4ccc(C)c(C)c4)=C3C)CC2)CC1` as the compound, how does the Potency read?
A: inconclusive: 31.6 µM [activator, partial curve]

Q: How did the max response, negative = inhibition turn out when `Cc1noc(/C=C/N(C)C)c1S(=O)(=O)N1CCCC(C(=O)Nc2ccc3c(c2)OCO3)C1` (stereo not drawn) was run?
A: inactive: -1.59%

Q: `Cc1ccc(NC(=S)N2CCN(c3ncccn3)CC2)c(C)c1` was tested. Which max response, negative = inhibition did it give?
A: inactive: 16.1%

Q: How did the Potency turn out when `CCCc1cc(C(=O)Nc2sc(C)c(C)c2C(=O)OCC)no1` was run?
A: active: 20 µM

Q: For `Cc1onc(-c2ccccc2Cl)c1C(=O)Nc1ccc(-c2cn3cccnc3n2)cc1`, which Potency is on record?
A: inconclusive: 25.1 µM [activator, single point]

Q: For `COc1ccc(Cl)cc1NC(=O)Cn1cccc1`, which max response, negative = inhibition is on record?
A: inactive: 1.87%

Q: Which max response, negative = inhibition does the source give for `COc1ccccc1-c1cncnc1Nc1ccccc1` here?
A: inactive: 7.94%

Q: With `CCCCOc1ccc(CNC(=O)CCCN2C(=O)CSc3c2c(C)nn3-c2ccccc2)cc1` as the compound, how does the Potency read?
A: inconclusive: 20 µM [activator, partial curve]

Q: With `Cc1cc(C)c2sc(NNC(=O)c3ccc(S(=O)(=O)N4CCc5ccccc5C4)cc3)nc2c1` as the compound, how does the Potency read?
A: active: 6.31 µM

Q: Which Potency does the source give for `C#CCOC(=O)/C(=C/C=C/c1ccccc1)NC(=O)c1ccccc1` here?
A: active: 12.6 µM

Q: With `CC(=O)c1ccc(NC(=O)C(=O)c2cn(CC(=O)N3CCCCC3)c3ccccc23)cc1` as the compound, how does the Potency read?
A: active: 10 µM

Q: Which Potency does the source give for `Cc1ccc(-c2nc3ccccc3o2)cc1NC(=S)NC(=O)c1cc2ccccc2o1` here?
A: active: 6.31 µM

Q: Which Potency does the source give for `CC1=C(c2ccc(C)cc2)S(=O)(=O)N(Cc2ccc(C(=O)Nc3ccc(F)cc3C)cc2)C1=O` here?
A: inconclusive: 25.1 µM [inhibitor, single point]

Q: Which Potency does the source give for `Cc1ccc(N(CC(=O)Nc2cc(C)cc(C)c2)S(=O)(=O)c2cccc3nonc23)cc1` here?
A: inconclusive: 25.1 µM [inhibitor, single point]

Q: For `COc1cc(C(=O)N2CCN(CCc3ccccn3)CC2)cc(OC)c1OC`, which max response, negative = inhibition is on record?
A: inactive: 3.2%

Q: With `O=C(NCc1ccc2c(c1)OCO2)c1cc2c(s1)CS(=O)(=O)C2` as the compound, how does the Potency read?
A: inconclusive: 25.1 µM [inhibitor, single point]

Q: How did the Potency turn out when `CCOC(=O)Nc1ccc2c(COC(=O)CNS(=O)(=O)c3cccc(Br)c3)cc(=O)oc2c1` was run?
A: inconclusive: 25.1 µM [inhibitor, single point]

Q: `Cc1ccc(N2C(=O)c3[nH]nc(-c4ccc(Cl)cc4)c3C2c2ccc(F)cc2)cc1` (stereo not drawn) was tested. Which Potency did it give?
A: inconclusive: 39.8 µM [inhibitor, single point]

Q: With `COc1cc2ccccc2cc1C(=O)Nc1ccc(Cl)c(-c2nc3ccccc3o2)c1` as the compound, how does the Potency read?
A: active: 3.16 µM

Q: `Nc1ncnc2c1ncn2[C@H]1O[C@@H](C(=O)O)[C@@H](O)[C@H]1O` was tested. Which max response, negative = inhibition did it give?
A: inactive: 7.38%

Q: How did the Potency turn out when `CCCc1cn(S(=O)(=O)c2ccc(OC)cc2OC)nc1N` was run?
A: inconclusive: 39.8 µM [inhibitor, single point]

Q: How did the Potency turn out when `COc1ccc(/C=C2\CCCC3C2=NN(C(=O)c2ccco2)C3c2ccc(OC)c(OC)c2)cc1OC` (stereo not drawn) was run?
A: inconclusive: 31.6 µM [activator, single point]

Q: `COc1cccc(C(=O)Nc2ccc(-c3cn4cccnc4n3)cc2)c1OC` was tested. Which Potency did it give?
A: inconclusive: 39.8 µM [activator, single point]

Q: `C#CCn1c(S(=O)(=O)Cc2ccc(F)cc2)nc(-c2ccccc2)c1-c1ccccc1` was tested. Which Potency did it give?
A: inconclusive: 31.6 µM [inhibitor, single point]

Q: `CCOc1ccc(NC(=O)Cn2ccn(-c3ccc(F)c(F)c3)c(=O)c2=O)cc1` was tested. Which Potency did it give?
A: inconclusive: 39.8 µM [activator, single point]
